From US20240158515A1, “ANTI-FGFR3 ANTIBODIES AND ANTIGEN-BINDING FRAGMENTS AND METHODS OF USE THEREOF” (Regeneron Pharmaceuticals, Inc., priority 2022, published 2024)

Assays:
[1] = molecular target: T1, dimeric human FGFR3b (hFGFR3b.mFc, REGN3153) (Homo sapiens, UniProt P22607); experiment: Biacore SPR binding kinetics, dimeric human FGFR3b to captured antibodies; details: 25° C.
T1 construct: REGN3153 (human FGFR3b expressed with a C-terminal murine Fc tag)
Procedure: Biacore binding kinetics of anti-FGFR3 antibodies, in an antibody capture format, to monomeric human FGFR3b, cynomolgus FGFR3b, murine FGFR3b, human FGFR3c, and dimeric human FGFR3b ecto domain recombinant proteins at 25° C. were analyzed.
Equilibrium dissociation constants (KD values) for human FGFR3b expressed with a C-terminal myc-myc-hexahistidine tag (hFGFR3b.mmH, REGN3152) or cynomolgus FGFR3b expressed with a C-terminal myc-myc-hexahistidine tag (mfFGFR3b.mmH, REGN3521), or murine FGFR3b expressed with a C-terminal myc-myc-hexahistidine tag (mFGFR3b.mmH, REGN3215) or human FGFR3c expressed with a C-terminal myc-myc-hexahistidine tag (hFGFR3c.mmH, REGN3155) or human FGFR3b expressed with an C-terminal murine Fc tag (hFGFR3b.mFc, REGN3153) binding to purified anti-FGFR3 antibodies were determined using a real-time surface plasmon resonance biosensor technology using a Biacore 3000 or Biacore 4000 instrument. The CM5 Biacore sensor surface was derivatized by amine coupling with a monoclonal mouse anti-human Fc monoclonal antibody (REGN2567). All Biacore binding studies were performed in a buffer composed of 0.01M HEPES pH 7.4, 0.15 M NaCl, 3 mM EDTA, 0.05% v/v Surfactant P20 (HBS-EP running buffer). Different concentrations of monomeric proteins prepared in HBS-EP running buffer (ranging from 90 nM to 3.33 nM in 3-fold serial dilutions) or dimeric protein (hFGFR3b.mFc, REGN3153) prepared in HBS-EP running buffer (ranging from 30 to 10 nM in 3-fold serial dilution) were injected over the captured anti-FGFR3 antibodies at a flow rate of 30 μL/minute. Antibody-reagent association was monitored for 5 minutes while dissociation in HBS-EP running buffer was monitored for 10 minutes. At the end of each cycle, the anti-FGFR3 antibody capture surface was regenerated using a 10 sec injection of 20 mM phosphoric acid. All binding kinetics experiments were performed at 25° C.
The specific SPR-Biacore sensorgrams were obtained by a double referencing procedure. The double referencing was performed by first subtracting the signal of each injection over a reference surface (anti-hFc) from the signal over the experimental surface (anti-hFc-captured anti-FGFR3 antibodies) thereby removing contributions from refractive index changes. In addition, running buffer injections were performed to allow subtraction of the signal changes resulting from the dissociation of captured antibodies from the coupled anti-hFc surface. Kinetic association (ka) and dissociation (kd) rate constants were determined by fitting the real-time sensorgrams to a 1:1 binding model using Scrubber v2.0c curve fitting software. Binding dissociation equilibrium constants (KD) and dissociative half-lives (t½) were calculated from the kinetic rate constants as: […]

[2] = system: UMUC14 xenograft (endogenous FGFR3 S249C); experiment: UMUC14 xenograft tumor growth inhibition; assay type: in vivo, SCID mice; details: 3 or 10 mg/kg intraperitoneally twice per week, FIG. 5
Procedure: Tumor cells (5×10^6 UMUC14 in 50% Matrigel, 100 ul) were implanted subcutaneously into the right flank of 6 to 8-week-old female SCID mice (Jackson Laboratory). Once tumors were established (˜200 mm^3 in volume), mice were randomized into treatment groups (n=10 mice per group) and injected intraperitoneally twice per week with anti-FGFR3 antibodies or isotype control at 3 or 10 mg/kg. Tumor volume was expressed in mm^3 using the formula: V=0.5×a×b^2 where a and b were the long and short diameters of the tumor, respectively. All data were analyzed using GraphPad Prism and tumor sizes were graph as mean+SEM.

[3] = system: CD73 protein level in UMUC14 xenograft tumors; experiment: CD73 expression in UMUC14 tumors in vivo, Western blot; parameters: species or system SCID mice; details: xenograft mice, FIG. 7 and 8
Procedure: To test the effect of anti-FGFR3 inhibitory antibody or tyrosine kinase inhibitor (AZD4547) on CD73 expression in vivo, tumor cells (5×10^6 UMUC14, 3×10^6 Fadu EV or S249C, in 50% Matrigel) were implanted subcutaneously into the right flank of 6 to 8-week-old female SCID mice (Jackson Laboratory). Once tumors were established (˜200 mm^3 in volume), mice were randomized into treatment groups (n=5-6 mice per group) and injected intraperitoneally once with anti-FGFR3 antibodies (15 mg/kg) or isotype control. Tyrosine kinase inhibitor AZD4547 (25 mg/kg) was administered once daily by oral gavage for 3 days. Tumors were collected 4 days post treatment initiation. Tumors were collected, snap frozen and lysed in RIPA buffer. Equal amount of tumor lysates were analyzed by SDS-PAGE and blotted with anti-CD73 and anti-FGFR3 antibodies as described above. Membranes were developed with SuperSignal West Pico or Femto substrate and luminescence images were captured with a C300 imager (Azure Biosystems). Intensity of each CD73 and actin band was quantitated using Image J (NIH), and the ratio of CD73/actin for each sample were graphed using Prism Graphpad.

[4] = system: BaF3 cells expressing FGFR3 S249C/V557L; experiment: BaF3 proliferation assay, FGFR3 S249C/V557L; assay type: cell-based, murine; details: FIG. 12A right
Procedure: IL-3 dependent murine pro B cell line BaF3 cells were engineered to stably express full length human FGFR3b S249C, V557L, V557M, S249C/V557L, S249C/V557M (accession number for WT FGFR3b NP_001156685.1, amino acids M1-T808). Cells were maintained in RPMI 1640+10% FBS+P/S/G+1 ng/ml mouse IL-3+500 ug/ml Neomycin; 37° C. 5% CO2. For proliferation assays, cells were washed with IL-3-free culture media and plated at 10^5 cells/well into 96-well black wall tissue culture plates. Cells were treated with 1:3 serially diluted antibody as indicated in the presence or absence of 5 μg/ml heparin and 1 nM human FGF1. After addition of antibodies, cells were incubated at 37° C./5% CO2 for 72 h followed by the addition of an equal volume of CellTiter-Glo™ (Promega) reagent to lyse cells and detect luciferase activity. Luminescence signal was quantitated with Envision plate reader (PerkinElmer). EC50 values of the antibodies were determined using GraphPad Prism software.

T1 sequence (P22607 with tags, fused parts or gaps isoform P22607-2): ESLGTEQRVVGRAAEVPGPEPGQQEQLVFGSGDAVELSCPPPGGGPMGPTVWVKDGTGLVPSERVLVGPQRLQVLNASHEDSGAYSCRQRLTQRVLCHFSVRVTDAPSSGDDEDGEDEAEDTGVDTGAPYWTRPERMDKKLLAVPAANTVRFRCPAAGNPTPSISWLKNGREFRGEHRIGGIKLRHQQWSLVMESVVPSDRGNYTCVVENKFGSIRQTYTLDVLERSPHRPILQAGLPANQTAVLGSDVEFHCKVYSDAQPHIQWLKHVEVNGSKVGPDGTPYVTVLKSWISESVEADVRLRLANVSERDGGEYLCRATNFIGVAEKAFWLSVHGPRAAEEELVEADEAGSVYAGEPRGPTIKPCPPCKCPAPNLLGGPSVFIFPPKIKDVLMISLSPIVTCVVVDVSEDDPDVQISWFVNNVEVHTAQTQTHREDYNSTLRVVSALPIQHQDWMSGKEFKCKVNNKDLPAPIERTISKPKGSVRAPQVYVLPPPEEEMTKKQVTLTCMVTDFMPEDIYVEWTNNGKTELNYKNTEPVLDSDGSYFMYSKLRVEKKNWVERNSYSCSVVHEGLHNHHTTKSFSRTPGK

B1: H4H30063P: anti-FGFR3 antibody, hIgG4^P; HCVR/LCVR SEQ ID NOs: 2 & 10; HC/LC SEQ ID NOs: 18 & 20 (antibody)
heavy: QVQLQESGPGLVKPSETLSLTCTVSGDSINSYFWSWIRQLPGKELEWIGHIYSSGSTRYNPSLQSRVTISIDTSKNQFSLKLSSVTAADTAVYYCARGASAVDYWGQGTLVTVSSASTKGPSVFPLAPCSRSTSESTAALGCLVKDYFPEPVTVSWNSGALTSGVHTFPAVLQSSGLYSLSSVVTVPSSSLGTKTYTCNVDHKPSNTKVDKRV[sequence of human IgG4 Fc with S228P (EU numbers) not given]
light: EIVLTQSPGTLSLSPGERATLSCRTSQSISSGYLAWYQQKPGQAPRLLIYGASRRATGIPDRFSGSGSGTDFTLTISRLEPEDFVVYYCQQYGSSPYTFGQGTKLEIKRTVAAPSVFIFPPSDEQLKSGTASVVCLLNNFYPREAKVQWKVDNALQSGNSQESVTEQDSKDSTYSLSSTLTLSKADYEKHKVYACEVTHQGLSSPVTKSFNRGEC
ka [1]: 442000 M⁻¹ s⁻¹
kd [1]: ≤1e-05 s⁻¹
tumor growth inhibition (in words) [2]: stronger tumor growth inhibition than comparator antibody REGN6331
CD73 protein level in UMUC14 cells in vivo (in words) [3]: CD73 band intensity decreased
growth inhibition of BaF3 cells expressing FGFR3 S249C+V557L (in words) [4]: strongly inhibit the growth
